In the supplement of paper PMC10320760:
Single values of this set are uncertain.

B1: Ydj1; a variant is named by its letters at X, in order (parent)
chain: MVKETKFYDILGVPVTATDVEIKKAYRKCALKYHPDKNPSEEAAEKFKEASAAYEILSDPEKRDIYDQFGEDGLSGAGGAGGFPGGGFGFGDDIFSQFFGAGGAQRPRGPQRGKDIKHEISASLEELYKGRTAKLALNKQILCKECEGRGGKKGAVKKCTSCNGQGIKFVTRQMGPMIQRFQTECDVCHGTGDIIDPKDRCKSCNGKKVENERKILEVHVEPGMKDGQRIVFKGEADQAPDVIPGDVVFIVSERPHKSFKRDGDDLVYEAEIDLLTAIAGGEFALEHVSGDWLKVGIVPGEVIAPGMRKVIEGKGMPIPKYGGYGNLIIKFTIKFPENHFTSEENLKKLEEILPPRIVPAIPKKATVDECVLADFDPAKYNRTRASRGGANYDSDEEEQGGEGVQCXXX

Variants of: B1
Experiment: enrichment factor, frequency at 37 °C / frequency at 25 °C (thermotolerance selection) (ratio); higher = more growth at 37 °C, higher likelihood of farnesylation
Details: with Saccharomyces cerevisiae ydj1Δ (yWS304); selective temperature 37 °C; reference temperature 25 °C
Experimental: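 Pooled library of all 8,000 Ydj1-CXXX C-terminal motif variants (native CASQ replaced by C + three variable residues, one codon per amino acid) expressed from a CEN plasmid in S. cerevisiae ydj1Δ (yWS304). The library was grown in SC-Ura liquid to A600 ~2 (~8 generations) at permissive 25 °C or selective 37 °C. Reads from 8 and 7 replicates were pooled and variants counted by NGS. Enrichment factor = frequency at 37 °C / frequency at 25 °C, with a +1 correction; it reports Ydj1-dependent thermotolerance, used as a read-out of farnesylation by yeast FTase.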

Row | Variant | enrichment factor
1 | HGM | 1.41
2 | HGN | 0.306
3 | HGS | 1.39
4 | HGW | 1.91
5 | HGQ | 1.33
6 | HGP | 0.13
7 | HGY | 1.49
8 | HGV | 0.664
9 | HGR | 0.17
10 | HGT | 0.635
11 | HGL | 0.18
12 | WGT | 1
13 | WGK | 0.254
14 | WGW | 1.37
15 | WGY | 1.59
16 | WGP | 0.856
17 | WGQ | 1.44
18 | WGM | 0.98
19 | WGR | 0.226
20 | WGS | 1.13
21 | WGL | 1.55
22 | WGV | 1.59
23 | WGN | 0.719
24 | IGW | 1.38

Row | Variant | enrichment factor
25 | IGV | 1.44
26 | IGN | 0.942
27 | IGR | 0.0987
28 | IGL | 0.806
29 | IGS | 1.21
30 | IGQ | 1.02
31 | IGY | 0.934
32 | IGP | 0.131
33 | IGM | 1.15
34 | IGT | 1.21
35 | NHE | 0.498
36 | NHG | 1.13
37 | NHA | 2.08
38 | NHF | 1.68
39 | NHC | 1.44
40 | NHD | 0.224
41 | AHA | 1.41
42 | AHE | 1.25
43 | AHF | 2.57
44 | AHC | 1.19
45 | AHG | 1.54
46 | AHD | 0.719
47 | SHA | 1.81
48 | SHD | 0.235

Row | Variant | enrichment factor
49 | SHE | 0.536
50 | SHC | 0.162
51 | SHF | 1.56
52 | MHG | 1.67
53 | MHF | 2.02
54 | MHA | 2.11
55 | MHC | 1.09
56 | MHE | 0.948
57 | MHD | 0.205
58 | LHG | 1.22
59 | LHC | 0.858
60 | LHD | 1.01
61 | LHA | 1.61
62 | LHE | 1.58
63 | LHF | 1.32
64 | SGT | 1.23
65 | SGP | 0.139
66 | SGR | 0.183
67 | SGN | 0.725
68 | SGV | 1.66
69 | SGL | 1.08
70 | SGW | 0.933
71 | SGS | 1.45
72 | SGQ | 1.48

Row | Variant | enrichment factor
73 | SGY | 1.66
74 | SGM | 1.5
75 | RGR | 0.132
76 | RGY | 1.2
77 | RGS | 1.21
78 | RGQ | 1.32
79 | RGP | 0.262
80 | RGM | 0.86
81 | RGV | 1.4
82 | RGT | 1.06
83 | RGL | 1.14
84 | RGN | 0.813
85 | RGW | 0.838
86 | LGW | 1.02
87 | LGM | 0.904
88 | LGN | 0.846
89 | LGL | 0.995
90 | LGT | 1.12
91 | LGP | 0.169
92 | LGY | 1.05
93 | LGS | 0.891
94 | LGR | 0.192
95 | LGV | 1.18
96 | LGQ | 1.14

Row | Variant | enrichment factor
97 | DHE | 0.182
98 | DHC | 1.07
99 | DHA | 1.66
100 | DHF | 0.276
101 | DHD | 0.0991
102 | AGR | 0.131
103 | AGY | 1.7
104 | AGL | 1.76
105 | AGT | 2.17
106 | AGQ | 1.45
107 | AGP | 0.124
108 | AGS | 2.42
109 | AGV | 1.72
110 | AGM | 1.39
111 | AGN | 1.37
112 | AGW | 0.606
113 | FHD | 0.286
114 | FHC | 1.63
115 | FHF | 1.49
116 | FHA | 3.49
117 | FHG | 1.1
118 | FHE | 0.328
119 | RHC | 1.54
120 | RHE | 0.941

Row | Variant | enrichment factor
121 | RHA | 1.45
122 | RHD | 1.27
123 | RHF | 1.16
124 | MGL | 0.805
125 | MGM | 1.33
126 | MGP | 0.213
127 | MGQ | 1.59
128 | MGY | 1.5
129 | MGS | 1.24
130 | MGW | 0.643
131 | MGR | 0.187
132 | MGT | 0.971
133 | MGV | 1.26
134 | MGN | 0.821
135 | CGL | 0.267
136 | CGM | 0.672
137 | CGT | 0.384
138 | CGQ | 0.436
139 | CGN | 1.15
140 | CGR | 0.0954
141 | CGP | 0.201
142 | CGW | 0.108
143 | CGS | 0.26
144 | CGV | 0.744

Row | Variant | enrichment factor
145 | CGY | 0.072
146 | QGS | 1.39
147 | QGT | 1.13
148 | QGQ | 1.47
149 | QGW | 1.26
150 | QGL | 0.978
151 | QGY | 1.98
152 | QGV | 1.79
153 | QGM | 1.82
154 | QGP | 0.171
155 | QGR | 0.158
156 | QGN | 0.452
157 | EGS | 0.808
158 | EGR | 0.122
159 | EGY | 1.4
160 | EGM | 1.52
161 | EGN | 0.0451
162 | EGW | 1.7
163 | EGV | 1.03
164 | EGL | 0.303
165 | EGP | 0.141
166 | EGT | 0.549
167 | EGQ | 1.18
